In the supplement of paper PMC7826260:
The list shows a part of the results. Each Rep nickase domain was tested in vitro on the same pool of single strands at 3 µM enzyme and 37 °C for 1 h; the strands have 90 letters, of which the middle is given. The score is log2 (uncut reads / reads without enzyme); uncut sequences lie near 0, cut ones below; no hit call is given. Counts are relative to all reads; values above 0 arise when much of the pool is cut.

Tests used:
Experiment in all cases: uncleaved DNA left, log2 of reads against the no-enzyme library (log2 ratio); higher = less cleavage (more negative = more Rep cleavage of the k-mer); sequences stand for … in CTCGTCCG…ACCGGAGA
[1] = test system: T1, Rep nickase domain of Muscovy duck circovirus
T1 sequence (protein, residues 1-111, tag omitted): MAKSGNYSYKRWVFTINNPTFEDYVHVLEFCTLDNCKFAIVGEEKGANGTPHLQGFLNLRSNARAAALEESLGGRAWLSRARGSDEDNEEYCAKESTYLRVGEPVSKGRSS
Experimental: (§1)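 A pool of 90-nt single-stranded DNAs with seven random bases just before the constant AC of the nick site (name = the seven bases) was cut by 3 µM recombinant His6-SUMO-tagged Rep nickase domain (300 nM DNA, 50 mM HEPES pH 8.0, 50 mM NaCl, 1 mM MnCl2, 1 h, 37 °C, three replicates). Uncut DNA was amplified and sequenced.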

[2] = test system: T2, Rep nickase domain of banana bunchy top virus
T2 sequence (protein, residues 1-94, tag omitted): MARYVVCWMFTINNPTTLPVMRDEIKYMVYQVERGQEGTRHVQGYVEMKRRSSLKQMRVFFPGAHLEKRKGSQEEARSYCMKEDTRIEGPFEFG
Experimental: as §1

[3] = test system: T3, Rep nickase domain of cabbage leaf curl virus
T3 sequence (protein, residues 1-116, tag omitted): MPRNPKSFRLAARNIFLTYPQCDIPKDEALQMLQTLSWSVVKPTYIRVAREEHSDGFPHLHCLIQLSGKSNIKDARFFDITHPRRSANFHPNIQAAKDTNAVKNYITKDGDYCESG
Experimental: as §1

[4] = test system: T4, Rep nickase domain of chickpea chlorotic dwarf virus
T4 sequence (protein, residues 1-124, tag omitted): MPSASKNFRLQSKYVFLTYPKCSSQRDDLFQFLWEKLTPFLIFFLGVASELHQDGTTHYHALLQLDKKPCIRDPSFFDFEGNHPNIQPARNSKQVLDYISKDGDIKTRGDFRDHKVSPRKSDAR
Experimental: as §1

[5] = test system: T5, Rep nickase domain of faba bean necrotic yellows virus
T5 sequence (protein, residues 1-98, tag omitted): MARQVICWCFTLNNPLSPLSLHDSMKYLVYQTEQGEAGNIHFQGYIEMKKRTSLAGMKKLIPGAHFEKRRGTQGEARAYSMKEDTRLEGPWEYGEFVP
Experimental: as §1

[6] = test system: T6, Rep nickase domain of maize striate mosaic virus
T6 sequence (protein, residues 1-117, tag omitted): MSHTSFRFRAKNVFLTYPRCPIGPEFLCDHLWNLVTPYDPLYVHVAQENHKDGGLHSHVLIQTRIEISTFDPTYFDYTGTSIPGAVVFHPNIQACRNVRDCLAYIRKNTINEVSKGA
Experimental: as §1

[7] = test system: T7, Rep nickase domain of porcine circovirus 2
T7 sequence (protein, residues 2-116, tag omitted): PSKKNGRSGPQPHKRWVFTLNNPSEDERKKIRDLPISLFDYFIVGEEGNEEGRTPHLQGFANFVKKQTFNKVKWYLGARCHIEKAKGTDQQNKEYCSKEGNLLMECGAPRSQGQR
Experimental: as §1

[8] = test system: T8, Rep nickase domain of tomato yellow leaf curl virus
T8 sequence (protein, residues 1-136, tag omitted): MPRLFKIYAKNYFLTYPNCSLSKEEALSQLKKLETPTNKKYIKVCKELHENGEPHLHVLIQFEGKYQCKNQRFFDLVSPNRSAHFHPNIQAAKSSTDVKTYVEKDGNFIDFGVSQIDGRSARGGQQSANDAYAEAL
Experimental: as §1

[9] = test system: T9, Rep nickase domain of wheat dwarf virus
T9 sequence (protein, residues 1-137, tag omitted): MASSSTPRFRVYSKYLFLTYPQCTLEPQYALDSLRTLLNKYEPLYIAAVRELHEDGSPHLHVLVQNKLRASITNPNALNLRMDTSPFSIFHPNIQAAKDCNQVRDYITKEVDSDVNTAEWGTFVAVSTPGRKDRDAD
Experimental: as §1

Sequence	uncleaved DNA left (log2) [1]	uncleaved DNA left (log2) [2]	uncleaved DNA left (log2) [3]	uncleaved DNA left (log2) [4]	uncleaved DNA left (log2) [5]	uncleaved DNA left (log2) [6]	uncleaved DNA left (log2) [7]	uncleaved DNA left (log2) [8]	uncleaved DNA left (log2) [9]
CCGCCGA	-0.347	-0.421	-0.669	-0.9	-0.304	-0.995	-0.227	-0.312	-0.419
TGAGAAG	0.157	0.0679	-0.447	-0.342	0.0801	-0.825	0.26	0.0978	0.00991
TTTTGCT	-1.46	-0.0645	-0.79	-1.4	-0.0161	-1.08	-0.979	0.00705	-0.161
AACTTAG	-0.0128	0.067	-0.721	-0.555	0.0722	-1.27	0.158	0.119	-0.0177
CCCTCAC	0.0712	-0.094	0.157	-0.417	0.144	-0.3	0.024	-0.0521	0.0795
ATCTACA	-0.0886	-0.0506	-0.328	-2.44	-0.0153	-0.671	-0.269	-0.0356	-0.119
CGGAATG	-0.0594	-0.00467	0.181	1.21	-0.122	1.3	-0.00191	0.0721	-0.0406
AGGGTGG	-0.0759	-0.0867	-0.188	0.254	-0.114	-0.252	0.0185	-0.148	-0.0514
GTGCATC	-0.101	0.13	0.408	0.894	0.0215	1.72	0.0998	0.104	0.104
CACACAA	0.0554	-0.0392	0.0358	-0.715	0.00939	-0.752	0.183	-0.0503	0.0728
ATAAAGC	-0.00836	0.00153	-0.236	-0.469	0.00869	-1.24	0.161	0.0516	-0.0114
CGAGGTT	0.163	0.194	0.361	0.375	0.095	1.37	0.228	0.075	0.14
CGACATT	-0.195	-0.0257	0.398	1.21	-0.115	1.73	-0.0351	-0.101	0.018
CCGTAAT	-1.78	-0.391	-1.66	-2.05	-1.19	-0.457	-3.05	-0.26	-2.03
AGAAGGT	-0.0236	0.0865	0.271	0.923	-0.0319	1.28	0.0377	-0.107	0.0233
CACGTTT	0.00572	-0.0894	-0.55	-2.69	0.0605	-0.44	-0.836	-0.0452	-0.208
ATCGTGG	-0.0595	-0.0729	-0.144	0.0042	-0.0505	-0.778	0.0989	-0.0272	-0.105
GTGAGGG	0.0812	0.00864	0.203	0.625	-0.0731	0.382	0.111	-0.0115	-0.0108
ACCACAT	0.141	0.0354	0.22	-0.0103	0.108	-0.21	0.198	0.0584	0.194
CTAGGAG	0.0885	0.0796	-0.245	0.41	0.0229	-0.699	0.202	0.0446	-0.0781
AAGCGTC	0.147	0.0547	-0.0882	-0.196	0.0161	-0.44	0.129	0.0447	-0.0155
AGTGACG	0.0369	-0.0284	-0.0726	0.552	0.0559	1.37	0.155	-0.0635	0.0382
ATGTCAT	-0.0866	0.0772	0.074	-0.0886	-0.0352	0.0862	-2.08	0.0258	-0.00608
TTGGCCG	0.00441	-0.0787	-0.812	-0.186	-0.0796	-1	0.0398	-0.0318	-0.0994
GCCCGAG	-0.124	0.155	0.821	1.76	0.0575	1.74	0.166	0.143	0.208
CATACAC	0.109	0.0643	0.0557	-1.01	0.00443	-0.62	0.144	0.0466	0.0128
ACTGTTA	-0.124	-0.192	-0.295	-0.292	0.000157	0.313	-0.277	-0.144	-0.132
GGAAGGA	0.0825	0.0933	0.734	1.06	0.0488	1.76	0.249	0.0744	0.17
TATTAAG	-0.0787	-0.0109	-0.814	-0.275	-0.00204	-0.956	0.149	0.0298	0.0189
ACGTTTC	0.108	-0.0358	-0.105	-0.227	0.00722	-0.632	0.118	-0.132	-0.0369
